Among all 310,000 compounds or so, about 2,200 (0.71%) showed an effect of 50% or more. The effect is printed as a negative number. The list shows a part of the results.
biological target: human ether-à-go-go-related gene (hERG) potassium channel (human, UniProt Q12809); assay: primary screen, population patch clamp on CHO cells stably expressing hERG
Sequence (Q12809 whole entry, looked up): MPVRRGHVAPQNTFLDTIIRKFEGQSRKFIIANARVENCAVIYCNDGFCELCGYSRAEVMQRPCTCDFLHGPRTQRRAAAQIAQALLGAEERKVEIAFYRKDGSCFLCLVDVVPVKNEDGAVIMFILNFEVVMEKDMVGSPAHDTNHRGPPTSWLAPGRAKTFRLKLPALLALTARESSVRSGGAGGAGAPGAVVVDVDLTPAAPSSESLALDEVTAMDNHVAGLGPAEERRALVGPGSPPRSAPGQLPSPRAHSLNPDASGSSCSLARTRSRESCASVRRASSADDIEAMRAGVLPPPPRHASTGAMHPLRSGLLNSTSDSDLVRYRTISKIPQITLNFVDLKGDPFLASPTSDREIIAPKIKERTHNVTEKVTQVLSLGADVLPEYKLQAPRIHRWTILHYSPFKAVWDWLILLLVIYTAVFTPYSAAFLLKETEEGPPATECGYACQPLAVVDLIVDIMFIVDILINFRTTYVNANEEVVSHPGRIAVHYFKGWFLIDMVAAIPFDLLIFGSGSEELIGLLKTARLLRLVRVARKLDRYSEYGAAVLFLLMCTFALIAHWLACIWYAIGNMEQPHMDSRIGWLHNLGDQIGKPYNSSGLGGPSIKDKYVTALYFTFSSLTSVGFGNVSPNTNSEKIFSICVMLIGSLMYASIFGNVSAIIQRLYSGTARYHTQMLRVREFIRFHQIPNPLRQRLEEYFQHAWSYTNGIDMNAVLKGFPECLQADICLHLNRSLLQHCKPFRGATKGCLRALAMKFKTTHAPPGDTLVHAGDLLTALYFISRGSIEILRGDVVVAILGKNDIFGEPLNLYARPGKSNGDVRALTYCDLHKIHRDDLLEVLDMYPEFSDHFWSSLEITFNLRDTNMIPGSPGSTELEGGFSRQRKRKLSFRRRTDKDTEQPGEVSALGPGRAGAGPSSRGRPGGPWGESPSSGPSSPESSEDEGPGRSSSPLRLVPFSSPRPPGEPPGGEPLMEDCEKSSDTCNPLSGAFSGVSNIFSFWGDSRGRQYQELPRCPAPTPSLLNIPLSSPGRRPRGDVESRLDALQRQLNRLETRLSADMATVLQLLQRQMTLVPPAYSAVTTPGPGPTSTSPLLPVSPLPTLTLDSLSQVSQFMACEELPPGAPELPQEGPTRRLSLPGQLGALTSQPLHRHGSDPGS

| Compound | hERG current change (%, negative = inhibition) at 1uM |
| --- | --- |
| Cc1cc(-c2n[nH]c(=S)n2/N=C/c2ccccc2[N+](=O)[O-])n[nH]1 | 12% |
| Cc1c(C(=O)OCC(=O)N(C)Cc2ccccc2)oc2ccccc12 | 6.88% |
| COc1cccc(NS(=O)(=O)c2c(C)nc3sccn3c2=O)c1 | 9.38% |
| O=C(Nc1ccccc1)c1c(F)c(F)c(F)c(F)c1F | 3.84% |
| O=C(NC(C(=O)N/N=C/c1ccccc1)c1n[nH]c(=O)c2ccccc12)c1ccccc1 (centres unmarked) | 9.47% |
| CCc1ccccc1NC(=O)CSc1nnc([C@@H](NC(=O)OC(C)(C)C)C(C)C)o1 | 5.92% |
| COc1ccc2oc(C(=O)OCC(=O)N(C)CC(=O)Nc3ccc(F)cc3)c(C)c2c1 | 12.4% |
| Cc1cc(C(=O)N(C)Cc2c(F)cccc2Cl)c2ccccc2n1 | -6.52% |
| Nn1c(SCC(=O)Nc2ccc3c(c2)OCCO3)nnc(CCC(=O)O)c1=O | 10.7% |
| Cc1ccc(C)c(NC(=O)C(=O)NCc2ccccn2)c1 | 6.08% |
| O=C(CSCCO)Nc1ccc(C2CCCCC2)cc1 | -2.66% |
| CC1CCN(C(=O)c2scc3c2OCCO3)CC1 | -3.72% |
| C=CCCCN(Cc1ccccc1)S(=O)(=O)c1ccccc1Br | 7.98% |
| O=C(NCCN1CCOCC1)c1cc(-c2ccc(F)cc2)nc2ccccc12 | -1.43% |
| COc1cccc(/C=c2\s/c(=C\C(=O)C(C)(C)C)[nH]c2=O)c1 | 4.63% |
| CCN(CC)C(=O)C1CCN(c2ncnc3c2cnn3-c2ccc(C)cc2C)CC1 | 8.99% |
| Cc1cc(Cl)c(S(=O)(=O)N2CC(C)OC(C)C2)cc1OCC(N)=O (centres unmarked) | 0.206% |
| Cc1cc(NC(=O)CSc2ccc3nnc(-c4cccc(F)c4)n3n2)no1 | 6.7% |
| Cc1ccccc1NC(=O)c1nn(-c2ccc(F)c(F)c2)ccc1=O | 7.26% |
| N#CC12CCCCC1CC1CCCCC1(C#N)N2Cc1cccnc1 (centres unmarked) | -2.82% |
| CCn1c(SCC(=O)Nc2sc3c(c2C#N)CCCC3)nnc1-c1ccncc1 | -9.94% |
| Cc1ccc2nc(SCC(=O)Nc3ccc(C)c([N+](=O)[O-])c3)[nH]c2c1 | 10.1% |

| Compound | hERG current change (%, negative = inhibition) at 1uM |
| --- | --- |
| CC(NC(=O)CN1C(=O)NC2(CCCC2)C1=O)c1ccc2ccccc2c1 (centres unmarked) | 5.74% |
| COc1ccc(OC)c(NC(=O)c2ccc3c(=O)n(CCc4ccccc4)c(=S)[nH]c3c2)c1 | 12.5% |
| CC1CCC(C(C)C)C2=C1C(C#N)(C#N)C(C#N)(C#N)C(c1ccccc1)N2 (centres unmarked) | 12.6% |
| CCC(CC)COC(=O)C(C#N)c1nc2ccccc2nc1N1CCN(CC)CC1 (centres unmarked) | -5.3% |
| COc1ccc(C(C[N+](=O)[O-])C2(c3ccc(OC)c(OC)c3)C(=O)c3ccccc3C2=O)cc1 (centres unmarked) | 4.39% |
| O=C(CNC(=O)c1cccs1)OCC(=O)c1ccc2ccccc2c1 | 12.9% |
| N=C1/C(=C/c2cccn2-c2cccc([N+](=O)[O-])c2)C(=O)N=C2SC=CN12 | 16.5% |
| COc1ccccc1OCCNC(=O)c1ccc2c(c1)CCC2 | 3.02% |
| Cn1nccc1NS(=O)(=O)c1ccc(F)cc1 | 12.3% |
| CCCCNC(=O)N(C)c1nncnc1C(=O)NC | 13.1% |
| O=C(CN1CCN(c2nc(-c3ccccc3)cs2)CC1)NCc1ccc2c(c1)OCO2 | -1.94% |
| Cc1ccc(/C=C2/Sc3ccccc3N(CC(=O)NCC3CCCO3)C2=O)cc1 (centres unmarked) | 3.89% |
| Cc1cnc(C(=O)OC(C)C(=O)c2c(C)[nH]c3ccccc23)cn1 (centres unmarked) | -2.75% |
| COc1ccc2c(C)cc(SCC(=O)NCCN3C(=O)CSC3=O)nc2c1 | 17.6% |
| O=C(NCCCCc1ccccc1)C1CC(c2cccc(F)c2)=NO1 (centres unmarked) | 7.53% |
| CN(CC(=O)Nc1cccc(F)c1)C(=O)CCCc1c[nH]c2ccccc12 | 2.54% |
| COc1cccc(COC(=O)C2CC(=O)N(Cc3ccc(C)cc3)C2)c1OC (centres unmarked) | 1.74% |
| CC(C)CNC(=O)c1cc([N+](=O)[O-])ccc1N1CCCCC1 | 7.4% |
| CCN(CC)S(=O)(=O)c1ccc(/C=C/C(=O)Nc2ccc(N3CCOCC3)cc2)cc1 | 3.95% |
| Cc1nn(Cc2ccccc2Cl)c(C)c1C(=O)OCC(=O)NC1CCS(=O)(=O)C1 (centres unmarked) | 12.1% |
| Cn1c(-c2cc(Cl)ccc2O)nc2c1c(=O)[nH]c(=O)n2Cc1ccccc1 | 13.7% |
| O=C(c1ccc2nc(Cc3ccccc3F)oc2c1)N1CC[C@H](O)C1 | 14.2% |
